Reference: the supplement of paper PMC12889115
Some of the results follow. Many values rest on one well or one pass, so single values are uncertain.

Tested on: Salmonella enterica serovar Typhimurium SL1344
Assay: bacterial growth OD600 after 18 h in MHB with 0.5 µg/mL polymyxin B; higher = more bacterial growth (less inhibition)
Settings: 25 µM; polymyxin B 0.5 µg/mL; system: broth
Procedure: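 Secondary screen of the 553 primary hits at 25 µM. (i) S. Typhimurium SL1344 grown in Mueller-Hinton broth with 0.5 µg/mL polymyxin B, OD600 read after 18 h. (ii) SAFIRE assay: RAW 264.7 macrophages infected with S. Typhimurium sifB::gfp (MOI 30); compound added 2 h post-infection; cells fixed at 18 h; GFP-positive pixel fraction per macrophage imaged by confocal microscopy and expressed as % of DMSO control.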
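Further: polymyxin B level opens the outer membrane while sparing the inner membrane, with novobiocin wells as reference growth inhibitor.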

Structure (SMILES)	bacterial growth OD600
CCCCn1c(CN2CCC(C(O)CC)CC2)cnc1S(=O)(=O)CCCC(C)C (stereo not given)	0.393
Cc1ccc(OCCN(C)C(=O)C2CC23CCN(Cc2nc4ccccc4s2)CC3)cc1 (stereo not given)	-0.002
Cc1nonc1CN(C)C(=O)CC(c1ccccc1)c1cccc(Cl)c1 (stereo not given)	0.181
COc1cc(CN2Cc3cc(Cl)ccc3OC(C)C2)cc2c1OCO2 (stereo not given)	-0.011
O=C(c1cc2cc(F)ccc2[nH]1)N1CCCC(CO)(Cc2cccc(Cl)c2)C1 (stereo not given)	-0.002
CCOc1ccc2nc(N3CCC(C(=O)N4CCN(C5CCCCC5)CC4)CC3)nc(C)c2c1	0.592
CN(C)c1ccccc1C(=O)N1CCCC(CO)(Cc2cccc(Cl)c2)C1 (stereo not given)	-0.011
CCOC(=O)CN(C)c1ccc(-c2nc(-c3cccc(OC)c3OC)no2)cn1	0.489
O=C(Nc1cccc(-c2ccc(F)cc2)c1)C1CCCN(C(=O)C2CCC2)C1 (stereo not given)	0.001
COc1ccccc1C1(CC(=O)N2CCCC(c3ccccc3C)C2)CC(=O)N(C)C1=O (stereo not given)	0.011
Cc1ccc(OCc2cc(C(=O)N(C)C3CCCCC3)no2)cc1C	0.007
O=C(/C=C/c1ccccc1)N1CCCC(c2nc(-c3ccncc3)ncc2-c2ccccc2)C1 (stereo not given)	-0.001
COCCCN1C(=O)CC(CC(=O)NCc2cc(F)cc(C(F)(F)F)c2)(c2ccccc2C)C1=O (stereo not given)	0.001
CN(C)Cc1ccc(C(=O)N2CCCC(CCc3cccc(F)c3)C2)o1 (stereo not given)	0.003
COc1ccc(-c2cnnc(NCc3c[nH]nc3-c3ccc(F)cc3)n2)cc1OC	0.005
CC(C)(O)C#Cc1ccc(C(=O)N2Cc3ccccc3OC(c3ccccc3)C2)cc1 (stereo not given)	0.001
COC1CCN(C(=O)C2(N(C)CCc3ccccc3)Cc3ccccc3C2)CC1	0.006
COCCCN1C(=O)CC(CC(=O)N2CCN(c3ccccc3C)CC2)(c2ccccc2OC)C1=O (stereo not given)	0.007
COCCN1C(=O)CC(CC(=O)N(C)CCC23CC4CC(CC(C4)C2)C3)(c2ccccc2OC)C1=O (stereo not given)	-0.012
COc1cccc(CN2CCc3nnc(C(CC(C)C)NC(=O)c4cc(C)cc(C)c4)n3CC2)c1O (stereo not given)	0.331
CN1C(=O)CC(CC(=O)N2CCCCC2c2nccs2)(c2ccc(-c3ccccc3)cc2)C1=O (stereo not given)	-0.004
Cc1oc(-c2cccc(Oc3ccccc3)c2)nc1CN1CCN(c2cnccn2)CC1	-0.001
CSCCCNC(=O)c1oc2ccc(C)cc2c1C	0.3
CC(NC(=O)CCc1ccccc1)c1nnc2n1CCN(Cc1ccc3c(c1)Cc1ccccc1-3)CC2 (stereo not given)	-0.006
CCOC(=O)C1(Cc2ccc(Cl)cc2)CCN(C(=O)c2ccc3nccnc3c2)CC1	0.003
COc1ccc2cc(C(=O)C3CCCN(C(=O)c4ccoc4C)C3)ccc2c1 (stereo not given)	-0.002
CCCc1cc(CN(C)C(=O)CC2(c3cccc(C(F)(F)F)c3)CC(=O)N(CC)C2=O)n[nH]1 (stereo not given)	0.016
COc1ccc(Cl)cc1NC(=O)CCC1CCCN(C(=O)CC2CCCC2)C1 (stereo not given)	0.432
CCOC(=O)C1(CCc2ccccc2)CCCN(Cc2cnc(SC)nc2)C1 (stereo not given)	0.003
O=C(c1cn2ccsc2n1)N(Cc1ccncc1)Cc1cccc(OCCc2ccc(F)cc2)c1	-0.007
